Drawing on the RNAGym collection of RNA variant scans (doi:10.7554/elife.90254), this text covers self-cleavage for 167 variants.

The source gives no read counts; variants with many changes may rest on few reads.

First the molecules themselves.
B1: LINE1-mini (parent)
chain: GGCAGAGCUCAACACAGCGUGGCAAAGUGGCUGUGGCUAGACUGCC

The variants in this data set derive from B1. In words: self-cleavage, relative activity (ratio to wild type); higher = more cleavage; in vitro, sequencing; the parent is a self-cleaving ribozyme.
As to A11C C23G A25U G27A, the self-cleavage was 0.04. Take A11C U32A G36C C42U: the self-cleavage is 0.01. With A11G A12U G19C G27A the figure was 0.01. Take C10U G35U A39C: the self-cleavage worked out at 0.03. The result for C10U C23U G35A C37U G40C A41C reads 0; that for C10U G22C G27U U32C U38C, 0.01. With A11C G29A G40U the figure was 0.03; with C10U U20A G44A, 0.03. With A11C A39C G44C, the self-cleavage amounted to 0. The result for C10U G19U G30U reads 0.4; that for C10U C13A U32G G33A A41U, 0.03; that for A11C G21A A39C, 0.01. As to C10U C15U C18U, the self-cleavage came to 0.08. The result for C10U G17U G19U G29U C31U reads 0.05; that for C10G G22A G33U U38G, 0.01; that for C10U G17A G21A G35U U38A, 0.03. The result for A11C A16U A24C U34A C46A reads 0; that for A11C A14C U34G, 0.02.

Take C10U G27U G29A: the self-cleavage is 0.33.

Consider A11C A25U G33U A41C C46G, for which the self-cleavage worked out at 0.01.

As for C10U C15G A16C, the self-cleavage was 0.02. Consider C10G G22U A26C C31A U38A C42U, for which the self-cleavage turned out to be 0.02. With C10U G17U G30C the figure was 0.42; with A11C G19A U38G G40U, 0.03; with A11C G22U G27A, 0.02.

On to A11C C15A G21A C23U A39C C42G, for which the self-cleavage worked out at 0.01. With C10U C18G G19U G21C the figure was 0.22. The result for A11C C18A G33A G35U reads 0. With A11C C13A G27A the figure was 0.02; with C10U U20G G35U C45U, 0.03; with A11C C18A G19C G29A C45A, 0.01.

On to C10U C15G G22U, for which the self-cleavage was found to be 0.06. With A11C A12U C15U G30U G33A C45U the figure was 0.01; with C10U A16U G22C, 0.07.

As for C10U A11C G33C, the self-cleavage was 0.02.

For A11G A14C G35C A39C C46U, the self-cleavage turned out to be 0. With A11C C13A A25G A26G G33A the figure was 0.03. With A11G A12U G17C C18U C37G the figure was 0; with C10G G35U A39C, 0.02; with C10U G21A G36C G40U, 0.01.

With A11C A12U C15U U20A G21U C31G C46A, the self-cleavage amounted to 0.01. For the variant C10U U20G A39C, the self-cleavage worked out at 0.2. In the case of A11C G17C G30U C31A, the self-cleavage came to 0.01. The result for C10G G19U G36C reads 0.02; that for C10G G19U G36U, 0.01; that for C10U C23U G30U G35C, 0.03. With C10U C31G G33A the figure was 0; with C10U G19U G29U A39C, 0.07; with C10U A39U C45A, 0.06. The result for C10U C18G U43C reads 0.01. On to C10U A11U C13U A16U G29U, for which the self-cleavage turned out to be 0.03. With C10G G21U C45U the figure was 0.33. Turning to C10U A25C A26C G29C G30A C46A, the self-cleavage was determined as 0.65. As to A11C A26C C31A, the self-cleavage amounted to 0. The result for A11C U20A G21A reads 0.03; that for C10U G19A G22C U43A, 0.01; that for C10U A12G C15U, 0.09. With A11C C31A U43C the figure was 0.01; with C10U A16U G30A G44U, 0.05. On to C10U G17C G22U C42U, for which the self-cleavage amounted to 0.05. The result for C10U C31G U34A reads 0.01. With C10U G21U A24U the figure was 0.8; with C10G G29U C45A, 0.03; with C10U A14U U32C, 0.04. The result for C10U A25U U28A G29U reads 0.9. As for C10U A14C A25G C42U, the self-cleavage is 0.

On to C10U A14C G33C G36C C42A, for which the self-cleavage was found to be 0.01. C10G G21A G22C G36U C46G: the self-cleavage stood at 0.01. The result for A11C A14G A41C reads 0. With C10U G22U U34C G36C A41C the figure was 0.01; with C10G G21U C37G, 0; with A11C G21U G40C, 0. The result for A11C G29C U43C reads 0. Take A11C C15U G22U: the self-cleavage was 0.03. As to A11C G17C C18A C45U, the self-cleavage came to 0. With C10G U28G C46G the figure was 0.03; with A11C C23G U43C C45G, 0.04; with A11C G29C U32C G35C, 0. With C10U A16C G22C the figure was 0.03; with C10U C15U A26U G36U, 0.07; with A11C C31G G33U, 0.01. The result for A11C C15U C45A reads 0.02. For C10G G21A A25G C37U C46U, the self-cleavage came to 0. With C10U A25G U28C C31G the figure was 0.02; with C10G U20A G22C G36A, 0.02. With C10G G19A G27C the figure was 0.06; with A11C G22C A25G G29C U32A G36U G44A, 0; with A11C G19U G33U C37G, 0.02. On to A11C A16G A25C A41C, for which the self-cleavage came to 0.01. The result for A11G A12C C15U C18A G27C G30C C31A reads 0.01; that for C10U G19U C37U, 0.02; that for C10U A12U C42U C46A, 0.09. On to A11C C13U A41U, for which the self-cleavage turned out to be 0.01. The result for A11C C13U A41C reads 0.02. With C10U G19C C31U U32C the figure was 0.04.

As to C10U G19C G33U, the self-cleavage was determined as 0.09. The result for A11C G21A A25U A26G C31U U38C reads 0; that for A11C G30A A41U, 0.04. For the variant C10U C23U A26U, the self-cleavage amounted to 0.07. With C10U G19U A24U the figure was 0.14; with A11C C23G A25U U43C, 0.02; with C10U C31G U32A, 0.07. With C10U A11U C18A C31G A41C the figure was 0.01; with C10G G30U U43A, 0.02. With A11G A12U G22U G27C A41C the figure was 0. As to A11C A14C U38C, the self-cleavage stood at 0. As to C10U C31G C37A, the self-cleavage was found to be 0.03.

As for A11C C15G A26U, the self-cleavage is 0.01. With C10U C15U G21A U34C the figure was 0.05; with C10G G40U C45U, 0.03. In the case of A11C C18G G33U A41U G44U C45A, the self-cleavage was found to be 0.02. Regarding C10U C13U U43C, the self-cleavage worked out at 0.05. With C10U A14G A16G U20G the figure was 0; with A11C G29U U32A, 0.03. As to A11C G21C A41G, the self-cleavage came out at 0.03. For the variant A11C G19C U20C A41C, the self-cleavage was determined as 0. The result for C10G G17U G19A G36U A41U reads 0.01; that for A11C G22U U34G, 0.03. The result for A11C G22C G36C reads 0.02. The result for C10U G27A C37G G44A reads 0.01. In the case of C10U G22C G30A, the self-cleavage turned out to be 0.37. The result for C10U A11U U34G reads 0.02. The result for A11C A12C G21C G29U G30U G36C U43C reads 0.

With C10U G17C C37U A41U, the self-cleavage turned out to be 0.02.

Take A11C G33A C42A: the self-cleavage came out at 0.02.

For C10U C31A G35U, the self-cleavage amounted to 0.02.

On to A11G A14C G30C A39U, for which the self-cleavage came to 0.02. The result for A11C C15G C31U G35C reads 0.01; that for C10U G19A G21A, 1.1; that for A11C C15G G33A, 0. With A11C G19U U32C C46G the figure was 0.05. With C10G C31A U34A the figure was 0.01; with A11C C31G U34A G35U G36U, 0.01; with A11C G35U G44C, 0.01. C10U C15A C18U: the self-cleavage was determined as 0.02. With C10U A14G G17U C31G U34G C45U the figure was 0.02. The result for C10U A24U U28C C37A reads 0.01. With A11C U20A C37A C42G C46A the figure was 0; with A11C A12G A24G G27C C45A, 0.02; with C10U A14C C42G, 0.09. For A11G A12C A25U G27A G40U, the self-cleavage was 0.

In the case of A11C G27U G29U, the self-cleavage turned out to be 0.03. The result for C10U C13A G19A G22A reads 0.03.

With C10G U38G A39U G40U, the self-cleavage came to 0.01.

As for A11C U20G G29U, the self-cleavage turned out to be 0.01.

C10G G17A C31A: the self-cleavage turned out to be 0.05.

In the case of A11C G36C C42U, the self-cleavage is 0.01. The result for A11C G19U C31U G40A reads 0.

In the case of C10U A12G C15U G22U, the self-cleavage was found to be 0.02.

For the variant C10U C13A U32C U43G, the self-cleavage came to 0.01. With A11C C31A U34G A41C the figure was 0.01. Regarding A11C U20C A25G G29C G44U, the self-cleavage came to 0.01.

With C10U A12U C23A A25C A41C, the self-cleavage was 0.03. The result for C10U A12G G33C reads 0.02; that for A11C A14G C15G A16U C18A G30U, 0.01.

On to A11C A12U C37G A41C, for which the self-cleavage came out at 0.01. The result for A11C A14U G35U C46A reads 0.01; that for C10U G17A U20A G29U G35C C37A U38C G44A, 0.01; that for C10U A16C C18U G44C, 0.02.

Regarding A11C G30A U43C C46A, the self-cleavage amounted to 0.01.

Consider C10U G22C U32A, for which the self-cleavage is 0.01.

With C10U A25U G40A, the self-cleavage is 0.04. In the case of C10G G21C G44C, the self-cleavage was 0.05.

Turning to A11C G19C U34A, the self-cleavage stood at 0.02.

Regarding A11C C23U A25C, the self-cleavage is 0. In the case of A11C A14C A26U C37U, the self-cleavage came out at 0.02. With A11C A26G C42U the figure was 0.01.
